Test results from article PMC6919601, “Identification of Plasmodium dipeptidyl aminopeptidase allosteric inhibitors by high throughput screening” (PLoS ONE, 2019).
Where “and” joins values, the source holds several entries; their conditions need not be identical. Equal entries are not always repeated. The campaign covered roughly 110,000 compounds. About 230 (0.21%) showed an effect of 50% or more. Some of the results follow.

target: DPAP1 (Plasmodium falciparum, UniProt Q8IIJ9); experiment: primary screen, percent inhibition; read by cleavage of a fluorogenic dipeptide substrate; higher = more effect of the substance; design: species or system P. falciparum D10 trophozoite lysates; single well
Sequence (Q8IIJ9 whole entry, looked up): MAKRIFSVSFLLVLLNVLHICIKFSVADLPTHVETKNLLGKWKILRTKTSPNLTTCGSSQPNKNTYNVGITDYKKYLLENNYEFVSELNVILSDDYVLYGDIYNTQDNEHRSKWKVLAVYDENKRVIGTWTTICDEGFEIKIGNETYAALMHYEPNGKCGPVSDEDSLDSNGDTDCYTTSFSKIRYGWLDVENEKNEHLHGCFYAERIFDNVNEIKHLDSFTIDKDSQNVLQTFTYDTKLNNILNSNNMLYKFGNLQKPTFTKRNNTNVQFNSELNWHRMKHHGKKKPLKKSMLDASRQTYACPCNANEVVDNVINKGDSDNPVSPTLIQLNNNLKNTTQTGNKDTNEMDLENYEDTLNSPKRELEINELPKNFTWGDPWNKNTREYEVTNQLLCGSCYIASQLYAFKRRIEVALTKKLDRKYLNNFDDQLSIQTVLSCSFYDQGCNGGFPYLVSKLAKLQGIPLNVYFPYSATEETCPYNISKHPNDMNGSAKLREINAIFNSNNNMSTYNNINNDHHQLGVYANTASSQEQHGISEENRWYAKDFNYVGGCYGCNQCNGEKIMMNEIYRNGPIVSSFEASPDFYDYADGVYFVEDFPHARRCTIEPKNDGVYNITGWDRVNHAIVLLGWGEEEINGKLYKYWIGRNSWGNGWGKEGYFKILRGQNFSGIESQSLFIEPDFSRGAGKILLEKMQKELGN
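Also: 30 min substrate incubation versus DMSO and 10 µM JCP410 controls.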

Row | Structure (SMILES) | % Inhibition @ 10 uM
1 | COc1ccccc1NC(=O)CSc1nc(C)c2c(c1C#N)CCCC2 | -2.45%
2 | COc1ccc(S(=O)(=O)N2CCN(C3CCC(C)CC3)CC2)cc1 (stereo not drawn) | 6.91%
3 | C=CCOC(=O)C1=C(C)N=C(C)/C(=C(/O)OCC=C)C1/C=C/c1ccccc1 (stereo not drawn) | -1.93%
4 | CCOC(=O)N1CCN(C(=O)C2CCN(S(=O)(=O)N(CC)CC)CC2)CC1 | 0.955%
5 | CC1=C(C(=O)NCCCN2C(C)CCCC2C)C2(CCCCC2)OC1=O (stereo not drawn) | 3.72%
6 | CC1CCCCN1c1nnc(NC(=O)NCc2ccc(F)cc2)s1 (stereo not drawn) | -2.85%
7 | CCn1cc(NC(=O)NCC2CCCCC2)c(=O)c2ccc(C)nc21 | 2.29%
8 | CCCC(=O)c1c(C)[nH]c(C(=O)OCC)c1C | 3.03%
9 | CCc1nc2ccccc2n1Cc1ccc(C(C)(C)C)cc1 | 1.13%
10 | O=C(NCc1cccnc1)c1cc2nc(-c3ccco3)cc(C(F)(F)Cl)n2n1 | 1.81%
11 | C=Cc1ccc(Cn2c(C)c(CNCCc3ccc(OCC)c(OCC)c3)c(C(=O)O)c2C)cc1 | -0.23%
12 | Cn1c(=O)c2c(n(C)c1=O)[n+](C)cn2Cc1ccccc1 | 4.1%
13 | COc1ccc(OC)c(NS(=O)(=O)CC(C)C)c1 | -0.13%
14 | CC(NC(=O)C(NS(=O)(=O)c1cccc2nsnc12)C(C)C)c1ccccc1 (stereo not drawn) | -4.34%
15 | Cc1c(Cl)c(C(=O)NC2C3CC4CC(C3)CC2C4)nn1C (stereo not drawn) | 2.38%
16 | N#CCc1ccc(NC(=O)c2ccc(Br)o2)cc1 | -8.48%
17 | CCCCSCCCNC(=O)CSCc1nc(-c2ccc(OC)c(OC)c2)oc1C | -1.05%
18 | Cc1ccc(/C=C2\N=C(c3cncc(Br)c3)OC2=O)cc1 | -0.0894%
19 | N#CCCN1c2ccccc2Sc2ccc(Cl)cc21 | 3.06%
20 | O=C1Cc2ccccc2C(c2cccc(Cl)c2Cl)N1 (stereo not drawn) | -4.35%
21 | CCOc1ccccc1N1CCN(C(=O)c2c(OC)cccc2OC)CC1 | -8.49%
22 | COc1cc2c(cc1OC)C1C(C(=O)N(C)Cc3ccccc3)c3ccccc3C(=O)N1CC2 (stereo not drawn) | 4.56%
23 | COc1cccc(OC)c1C(=O)Nc1cc(C)ccn1 | -1.41%
24 | Nc1c(-c2ccccc2)n[nH]c1-c1ccccc1 | 3.44%
25 | CC1(C)Cc2c(c(N3CCOCC3)nc3sc4c(=O)n(-c5ccccn5)cnc4c23)CO1 | -5.41%
26 | O=C1c2ccccc2C(=O)C1c1ccncc1 | -1.59%

Row | Structure (SMILES) | % Inhibition @ 10 uM
27 | COc1ccc(CCNS(=O)(=O)c2ccc(-c3cc(C(F)(F)F)no3)s2)cc1OC | 3.57%
28 | CCOc1ccc2nc(NC(=O)Cc3nn(C)c(=O)c4ccccc34)sc2c1 | -0.458%
29 | CCOC(=O)c1cnc2c(OC)cccc2c1NCCCN(CC)CC | 13.6%
30 | Cc1ccc(-n2cnc3cc(NCc4ccco4)ccc32)cc1 | -2.65%
31 | COc1cccc(/C=c2/sc3n(c2=O)C(N)=C(C#N)C(c2cccc(OC)c2)C=3C#N)c1 (stereo not drawn) | 13.2%
32 | COC(=O)C1=C(N)OC2=C(C(=O)CCC2)C1c1cc(CSc2nc3ccccc3s2)cs1 (stereo not drawn) | 7.16%
33 | NS(=O)(=O)c1ccc(NC(=O)Nc2cccc3ccccc23)cc1 | -1.32%
34 | O=C(CSc1nnc(-c2ccncc2)n1-c1ccccc1)NCc1ccc(F)cc1 | 1.88%
35 | CCOC(=O)c1[nH]c(C)c(C(=O)C(C)C)c1C | 1.08%
36 | CCN1C(=O)C2(C(C#N)=C(N)Oc3[nH]nc(COC)c32)c2ccccc21 (stereo not drawn) | -0.968%
37 | C=CCNc1nnc(C)c2nnn(Cc3ccccc3Cl)c12 | 1.67%
38 | CC(=O)N(CCC(c1ccccc1)c1ccco1)Cc1ccc(OC(C)C)cc1 (stereo not drawn) | 4.74%
39 | O=C(CSCc1c(Cl)cccc1Cl)NCC1CCCO1 (stereo not drawn) | 2.38%
40 | CC(C)(C)c1[nH]nc2c1C1(C(=O)Nc3ccccc31)C(C#N)=C(N)O2 (stereo not drawn) | -2.53%
41 | Cc1ccc(C2=NS(=O)(=O)N(C)C(C(=O)Nc3ccn(Cc4ccccc4C)n3)=C2)cc1 | 0.655%
42 | COC(=O)c1ccccc1Nc1nc(-c2ccc(OC)cc2)cc(-c2ccc(OC)cc2)n1 | 3.06%
43 | COc1ccccc1C1=N/C(=C/c2ccc(C(=O)O)cc2)C(=O)O1 | 4.32%
44 | Cc1[nH]nc2c1C(c1cccc(O)c1)N(C)C2=O (stereo not drawn) | -10.6%
45 | COc1ccc(C(=O)N2CCN(Cc3ccc(Br)cc3)CC2)cc1 | 6.24%
46 | CCOC(=O)C1CCN(Cc2ccccc2F)CC1 | -1.92%
47 | O=C(OCCCNC1=NS(=O)(=O)c2ccccc21)c1ccc(S(=O)(=O)N2CCCCC2)cc1 | 4.54%
48 | Clc1ccc(-c2ncnn2-c2ccc(Br)cn2)c(Cl)c1 | 2.65%
49 | COc1ccc(-c2cn3nc(N4CCCC(C(=O)NCc5ccco5)C4)sc3n2)cc1 (stereo not drawn) | 3.7%
50 | Cc1ccc(Cn2c(S)nc3c2c(=O)n(C)c(=O)n3C)cc1 | 1.8%
51 | COc1ccc(CCCC(=O)O)c2ccccc12 | -1.79%
52 | COc1ccccc1CN1COc2c(cc3c4c(c(=O)oc3c2C)CCC4)C1 | -4.39%

Row | Structure (SMILES) | % Inhibition @ 10 uM
53 | C1=C(c2ccc3c(c2)c2c4n3CCN(Cc3ccccc3)C4CCC2)C2CCN1CC2 (stereo not drawn) | 70.5%
54 | c1ccc(-n2nnnc2SCCNCc2cccs2)cc1 | 2.25%
55 | c1ccc(-c2nc(C34CC5CC(CC(C5)C3)C4)co2)cc1 | -4.27%
56 | Cc1c(C(=O)N2CCOCC2)[nH]c2ccc(OCc3ccccc3)cc12 | -1.36%
57 | COc1ccccc1OCC(=O)Nc1nonc1NC(=O)COc1ccccc1OC | -10.6%
58 | N#CCNC(=O)C(CC1CCCCC1)C(=O)Nc1ccc(C(N)=O)cc1 (stereo not drawn) | -5.21%
59 | O=C(CC(c1ccccc1)c1ccccc1)Nc1ccccn1 | -7.3%
60 | O=C(NCc1cccn1Cc1ccccc1)NC1CCCC1 | -0.0894%
61 | c1ccc2c(c1)-c1ccccc1C2N1CCNCC1 | -3.77%
62 | CC1CCN(C2CCN(CCc3ccccc3)CC2)CC1 | -4.01%
63 | CSC1=C(C#N)C(c2ccc(Cl)cc2)CC(=O)N1 (stereo not drawn) | 0.912%
64 | COc1ccc(CCNC(=O)c2cc3c(=O)oc4ccccc4c3s2)cc1OC | 0.121%
65 | c1ccc2c3c(c(CN4CCOCC4)cc2c1)COC3 | -2.6%
66 | COc1cc(/C=C2/C=C(c3ccc(C(C)C)cc3)OC2=O)cc(OC)c1OC | -3.74%
67 | CCC(=O)Nc1cc2nn(-c3ccc(C)cc3)nc2cc1Cl | 1.35%
68 | Clc1ccccc1OCCCCCCN1CCCCC1 | -5.84%
69 | Cc1ccc(CNC(=O)/C=C/C(=O)O)cc1 | 1.42%
70 | COc1ccc(CN2CCSCC2)c(OC)c1OC | -1.92%
71 | Cc1nnc2sc(-c3ccc(Cl)cc3)cc(=O)n12 | -4.73%
72 | COc1ccc(Cc2nc3c4cnn(-c5ccccc5F)c4ncn3n2)cc1OC | -6.5%
73 | Cc1nn(CC(=O)NCC(C)c2ccccc2)c(=O)c2cc3cc(F)ccc3n12 (stereo not drawn) | 1.68%
74 | CCCCCC(=O)NCCCCC(=O)O | -4.24%
75 | CNC(=O)c1[nH]c2cc(OC)ccc2c1Sc1ccc(C)cc1 | -2.96%
76 | Cc1ccc(NC(=O)CN2C(=O)C3C4CCC(C4)C3C2=O)cc1 (stereo not drawn) | -9.4%
77 | CCOC(=O)c1c(NC(=O)c2ccc(C)cc2)sc(C(=O)NC2CCCCC2)c1C | 5.44%
78 | COc1ccc(N2CCN(Cc3cccc(Br)c3)CC2)cc1 | -2.7%

Row | Structure (SMILES) | % Inhibition @ 10 uM
79 | NC(=O)c1c(NC(=O)COc2ccccc2)sc2c1CCCCC2 | 1.88%
80 | NC(=O)c1ccc(NC(=O)CN2CCN(Cc3ccccc3)CC2)cc1 | -6.57%
81 | COc1ccc(NC(=O)CSc2nc(-c3ccc4c(c3)OCO4)ccc2C#N)cc1OC | -4.61%
82 | COc1ccc(N2CCN(C(=O)c3cc(C(F)(F)F)[nH]n3)CC2)cc1 | -3.72%
83 | Cc1oc(C(=O)N2CCCC2C(=O)O)cc1COc1ccc2oc3ccccc3c2c1 (stereo not drawn) | 5.87% and 5.72%
84 | COc1ccc(-n2c(C)nc3cc(C(=O)N4CCOCC4)ccc32)cc1 | -2.17%
85 | Oc1cc(C(F)(F)C(F)(F)C(F)(F)C(F)(F)F)nn1-c1ccccc1 | 0.0719%
86 | CC(C)C[C@H](NC(=O)c1ccc(-c2csc(Nc3ccccn3)n2)cc1)C(=O)NCC#N | -2.35%
87 | COc1ccc(CC(=O)NCc2nc(-c3ccc(Cl)cc3)no2)cc1OC | -4.82%
88 | CC(C)NC(=O)/C=C/c1ccccc1Cl | -1.62%
89 | OCCNc1nc(N2CCN(Cc3ccccc3)CC2)nc2ccccc12 | -1.82%
90 | CC1CN(C)CCC1(O)c1ccccc1 (stereo not drawn) | -3.82%
91 | COc1cccc(NC(=O)CCC(=O)O)c1 | 0.878%
92 | CCCCC(=O)Nc1ccc(-c2cn3ccsc3n2)cc1 | 4.67%
93 | CCOC(=O)N1CCC(NC(=O)c2cnn(-c3ccc(C)c(C)c3)c2C2CCNCC2)CC1 | -2.71%
94 | CC1CCCC(NC(=O)CCCn2c(=O)c3cccn3c3cccnc32)C1C (stereo not drawn) | 1.5%
95 | O=C(CCSc1nccn1Cc1ccccc1)Nc1ccc(Cl)cc1 | 1.42%
96 | CC(C)(O)C(C)(C)C(OC(=O)c1ccccc1)c1ccccc1 (stereo not drawn) | 0.847%
97 | Cc1[nH]cnc1CN1CCCCCC1 | -6.85%
98 | O=C(O)c1ccc(N2C(=O)c3ccccc3C2=O)cc1[N+](=O)[O-] | 3.47%
99 | CC1(C)CC(=O)C(c2nc3cc(C(=O)c4ccccc4)ccc3[nH]2)=C(O)C1 | 4.61%
100 | O=C(NCc1ccc2c(c1)OCO2)c1ccc(COc2cccc(Cl)c2)o1 | -3.13%
101 | OC(CNC1CCCCC1)Cn1c2ccc(Cl)cc2c2cc(Cl)ccc21 (stereo not drawn) | -5.16%
102 | Cc1ccc(NC(=O)c2ccc(Cl)c(Cl)c2)cc1O | 1.39%
